Experimental data: the supplement of paper PMC10126150
Values marked as one replicate rest on one cluster of the flow cell; about a third of the high ones do not repeat.

system: ATP; test: switch fluorescence ratio, 500 uM ATP over buffer (Cy3 cluster intensity, sum of 5 cycles each) (fold (ratio)); higher = stronger signal-on switching upon ATP binding; sequences stand for … in TCGTCGGCAGCGTCAGATGTGTATAAGAGACAGTTTTTTTTTTTTTTTTTTTTTTTTT…TC; settings: aptamer strand: ATP DNA aptamer (quencher-CACCTGGGGGAGTATTGCGGAGGAAGG + anchor), 100 nM annealed; ATP concentration: 500 uM; one replicate
In short: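 The quencher-labelled ATP aptamer, at 100 nM, was annealed to Cy3-labelled switching-strand clusters on a modified Illumina MiSeq flow-cell. The clusters were imaged in selection buffer, then after 15 min with 500 uM ATP at 22 °C, and this buffer/ATP cycle ran five times with NaOH stripping and re-annealing between runs. Per-cluster fluorescence ratios, summed target-cycle over summed buffer-cycle Cy3 intensity, were averaged per switch-domain sequence. Clusters outside 100-1000 RFU were excluded.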
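Note: ATP exposure 15 min at 22 °C before imaging.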

| Sequence | switch fluorescence ratio |
| --- | --- |
| ACCAAACGTA | 1.11 |
| ACCAAAGGTA | 0.994 |
| ACCAACAAAG | 1.06 |
| ACCAACCCGC | 2.7 |
| ACCAACGGAC | 1.37 |
| ACCAACTTGA | 1.32 |
| ACCAAGGTCA | 0.96 |
| ACCACAGGGC | 1.41 |
| ACCACCTTAA | 1.09 |
| ACCACTTACG | 1.54 |
| ACCAGATCAT | 1.01 |
| ACCAGATCGG | 0.976 |
| ACCAGGTTTC | 1.12 |
| ACCAGTC | 0.968 |
| ACCAGTCCTT | 1.01 |
| ACCAGTCTTA | 1.05 |
| ACCAGTGCCA | 0.94 |
| ACCATAAAGG | 1.01 |
| ACCATGACTC | 1.15 |
| ACCATTGCAT | 1.03 |
| ACCATTGCC | 1.01 |
| ACCATTGGGT | 1.06 |
| ACCATTTTC | 0.966 |
| ACCCAACAGC | 1.16 |
| ACCCAGCTTT | 1.03 |
| ACCCAGGAAA | 1.06 |

| Sequence | switch fluorescence ratio |
| --- | --- |
| ACCCATAAGC | 1.05 |
| ACCCATGACC | 1.13 |
| ACCCCAGAT | 1.2 |
| ACCCCCGCG | 1.18 |
| ACCCCCGCGT | 1.48 |
| ACCCCGGCTG | 1.34 |
| ACCCCTGTGC | 1.87 |
| ACCCGAGTTA | 1.03 |
| ACCCGCCATT | 1.49 |
| ACCCGGAC | 1.05 |
| ACCCGGACCC | 1.07 |
| ACCCGTTGCA | 1.04 |
| ACCCTAAAGA | 1.01 |
| ACCCTAGCCC | 1.03 |
| ACCCTATCCA | 1.05 |
| ACCCTGATGT | 1.03 |
| ACCGAAATAT | 2.51 |
| ACCGAGTCAG | 1.25 |
| ACCGCACGGG | 2.03 |
| ACCGCATAA | 1.39 |
| ACCGCGCGAT | 1.26 |
| ACCGCGTTAA | 1.15 |
| ACCGCTGGGG | 1.83 |
| ACCGCTTTGC | 1.64 |
| ACCGGCCGGG | 1.04 |
| ACCGGCTCTA | 1.04 |

| Sequence | switch fluorescence ratio |
| --- | --- |
| ACCGGGCATG | 1 |
| ACCGGGCTGT | 0.924 |
| ACCGGGCTTA | 1.03 |
| ACCGGGGATG | 1.13 |
| ACCGGGGGTC | 1 |
| ACCGGGTAGA | 1 |
| ACCGGTAAT | 0.966 |
| ACCGGTAATC | 1.07 |
| ACCGGTCACA | 1.1 |
| ACCGGTGATA | 1.04 |
| ACCGGTTCCT | 0.968 |
| ACCGGTTCTT | 1.01 |
| ACCGTCAGCA | 1.18 |
| ACCGTCCCGG | 1.12 |
| ACCGTGAAAT | 1.01 |
| ACCGTGGGCC | 0.991 |
| ACCGTTACGA | 1.08 |
| ACCGTTGTCG | 1.07 |
| ACCTACGGGG | 1.21 |
| ACCTACTGGG | 1.02 |
| ACCTAGGCGG | 1.04 |
| ACCTAGGTCC | 1.08 |
| ACCTATAATA | 1 |
| ACCTATCTCT | 1.05 |
| ACCTCAACGT | 1.14 |
| ACCTCACTCG | 1.5 |

| Sequence | switch fluorescence ratio |
| --- | --- |
| ACCTCCCTAG | 1.24 |
| ACCTCCCTGG | 1.32 |
| ACCTCGGCAG | 2.08 |
| ACCTCTGTGG | 0.982 |
| ACCTGAACG | 1.28 |
| ACCTGCACCA | 1.29 |
| ACCTGCATTA | 1.43 |
| ACCTGGACAC | 1.19 |
| ACCTGTTACG | 1.16 |
| ACCTTAAAGG | 0.988 |
| ACCTTAGCGT | 1.11 |
| ACCTTCACTA | 1.33 |
| ACCTTGAATC | 1.09 |
| ACCTTGGATC | 0.98 |
| ACCTTGTAAG | 1.01 |
| ACCTTTAAC | 1.09 |
| ACCTTTCGAG | 2.77 |
| ACCTTTGGGT | 0.979 |
| ACGAAAGACA | 1.12 |
| ACGAAAGGCG | 1.02 |
| ACGAAGCGTC | 2.52 |
| ACGAAGTTTG | 1.01 |
| ACGACCATAA | 1.3 |
| ACGACCCGTT | 1.13 |
| ACGACCGCT | 1.42 |
| ACGACGATAA | 2.54 |

| Sequence | switch fluorescence ratio |
| --- | --- |
| ACGACGGGAA | 1.55 |
| ACGACTATCC | 1.21 |
| ACGACTGAGG | 1.03 |
| ACGAGCAGGT | 1.19 |
| ACGAGCCACG | 1.03 |
| ACGAGCGGTA | 1.08 |
| ACGAGGTAAA | 1.02 |
| ACGAGTACTA | 1.1 |
| ACGAGTCAGC | 1.08 |
| ACGAGTTA | 0.966 |
| ACGATAATCA | 1.07 |
| ACGATCTAGG | 0.998 |
| ACGATGTCAA | 1.09 |
| ACGATGTGTA | 1 |
| ACGATTA | 1.03 |
| ACGATTAACC | 1.16 |
| ACGATTAGC | 1.05 |
| ACGATTCTTC | 0.985 |
| ACGATTGCCC | 1.03 |
| ACGATTGCCG | 1.62 |
| ACGATTTGA | 0.985 |
| ACGCACCTC | 1.64 |
| ACGCAGATCT | 1.05 |
| ACGCAGGACC | 2.08 |
| ACGCATAAAG | 1.21 |
| ACGCATATAG | 4.28 |

| Sequence | switch fluorescence ratio |
| --- | --- |
| ACGCATTTGT | 1.13 |
| ACGCCATGAT | 1.14 |
| ACGCCGCGCC | 1.71 |
| ACGCCTTTGT | 1.02 |
| ACGCGAAAAT | 1.17 |
| ACGCGAGGTC | 1.17 |
| ACGCGAGTTA | 1.03 |
| ACGCGATCTC | 2.08 |
| ACGCGATCTT | 1.07 |
| ACGCGGAAG | 1.01 |
| ACGCGGCACG | 1.02 |
| ACGCGGTTTC | 1.08 |
| ACGCGTGTGA | 1.02 |
| ACGCTAGGAA | 1.16 |
| ACGCTCATAT | 1.28 |
| ACGCTCTCAA | 1.18 |
| ACGCTTGGTG | 1.11 |
| ACGCTTTGGC | 0.995 |
| ACGGAACAG | 1.16 |
| ACGGAATACG | 3.61 |
| ACGGAATCAT | 1.03 |
| ACGGACCTTG | 1.01 |
| ACGGACTTTC | 1.44 |
| ACGGAGAACT | 1.07 |
| ACGGAGCCTC | 2.91 |
| ACGGAGTAGT | 1.02 |

| Sequence | switch fluorescence ratio |
| --- | --- |
| ACGGATACTT | 1.26 |
| ACGGATCCGG | 0.931 |
| ACGGATTAAA | 1.01 |
| ACGGATTATC | 1.32 |
| ACGGCATATC | 1.59 |
| ACGGCCACCC | 1.66 |
| ACGGCCTTTG | 1.08 |
| ACGGCGCCCC | 1.03 |
| ACGGCGGACG | 0.977 |
| ACGGCTCCAA | 1.02 |
| ACGGCTGGCT | 1.07 |
| ACGGCTGTTT | 1.01 |
| ACGGGAAGCA | 1.05 |
| ACGGGACGCT | 1.06 |
| ACGGGCCTCG | 0.974 |
| ACGGGGAATC | 1.13 |
| ACGGGGTAGC | 0.988 |
| ACGGGGTGCT | 1.03 |
| ACGGGTAGTG | 0.967 |
| ACGGTAAGC | 1.21 |
| ACGGTGCAAG | 1.05 |
| ACGGTTTGCT | 1.16 |
| ACGTAACTC | 1.35 |
| ACGTACGGGC | 1.45 |
| ACGTACTAGT | 1.51 |
| ACGTAGGGAA | 1.02 |

| Sequence | switch fluorescence ratio |
| --- | --- |
| ACGTAGTGAG | 1.02 |
| ACGTATCGCG | 0.983 |
| ACGTATTTAC | 1.33 |
| ACGTCAAAGA | 1.16 |
| ACGTCGCTAT | 1.47 |
| ACGTCGCTGT | 1.02 |
| ACGTCGCTTG | 1.04 |
| ACGTCGGACT | 0.987 |
| ACGTCTGTCA | 0.998 |
| ACGTCTTTAA | 0.974 |
| ACGTGATACG | 1.08 |
| ACGTGATGTA | 1.02 |
| ACGTGCCTTG | 1.02 |
| ACGTGCGTAT | 1.02 |
| ACGTGGATCC | 0.997 |
| ACGTGGTTTA | 1 |
| ACGTGTCAGA | 1.08 |
| ACGTGTTTTC | 1 |
| ACGTTACCGG | 1.55 |
